Laboratory results from PubChem BioAssay AID1745845 (National Center for Advancing Translational Sciences (NCATS), 2022).
The whole screen tested about 360,000 compounds, of which about 2,600 (0.72%) were called active. This list was built around the results that the source calls inconclusive (neither active nor inactive); the mix of calls is not that of the screen. Calls follow the shape of the dose curve; as a rule, active = well fitted inhibition curve with a large enough effect; inconclusive = small, poorly fitted or top-dose-only effect; inactive = no such curve, though single readings can be large or run the other way. Where the call is inconclusive, the potency comes from a doubtful curve fit.

Test: Primary qHTS for Inhibitors of ATXN expression; also: nearly all actives have a fitted effect of over 55% in size
Conditions: HEK-293 ATXN2-luciferase reporter, luminescence, 24 h; activity change, negative = inhibition: at 57 µM (top of the series)
In short: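 qHTS (up to 57 uM final) was run with 24 h compound exposure of reporter cells at 37 °C. Each well was multiplexed: SteadyGlo luminescence measured ATXN2-luciferase expression after a fluorogenic Gly-Phe-AFC viability readout (25 uM final).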
% is scaled to controls: 0 for no effect and ±100 for the full control effect; potency is read from the fitted curve at half-maximal effect; tags tell the direction and shape of the fitted curve.

SMILES | Potency | activity change, negative = inhibition
N/C(Cc1ccc(Cl)cc1)=N\OC(=O)c1cccc2ccccc12 | inconclusive: 39.8 µM [inhibitor, single point] | –
CNC(=O)C(NC(=O)Nc1ccc(C)cc1)C(C)(C)C (stereo unspecified) | inconclusive: 8.44 µM [inhibitor, single point] | –
COc1cccc(NC(=O)CSc2nnc(Cc3cccs3)n2-c2ccc(C)cc2)c1 | inconclusive: 39.8 µM [inhibitor, partial curve, poor fit] | –
CCOC(=O)c1nnn2c1nc(N1CCOCC1)c1ccccc12 | inconclusive: 0.316 µM [inhibitor, partial curve, poor fit] | –
Cn1c(=N)n(CC(O)c2cccs2)c2ccccc21 (stereo unspecified) | – | inconclusive: -39.9% [inhibitor]
O=C(COc1ccc(S(=O)(=O)NC2CCCCC2)cc1)N1CCN(c2ccc(F)cc2)CC1 | inconclusive: 13.4 µM [inhibitor, partial curve, poor fit] | –
CC(OC(=O)C1CCN(S(=O)(=O)c2ccc(C(C)(C)C)cc2)CC1)C(=O)N(C)C1CCCCC1 (stereo unspecified) | inconclusive: 39.8 µM [inhibitor, single point] | –
C[C@@H]1[C@H]2[C@@H]3CC[C@@H](C3)[C@H]2CN[C@H]1c1cn(Cc2ccccc2)c2ccccc12 | inconclusive: 39.8 µM [inhibitor, single point] | –
CCCNC(=O)c1ccc2c(=O)c(O)c(-c3ccc(OC)cc3)[nH]c2c1 | inconclusive: 22.4 µM [inhibitor, partial curve, poor fit] | –
CC(C)(C)C(=O)NNC(=O)c1cc(C(C)(C)C)nn1Cc1ccccc1 | inactive | –
C[C@H](CO)N1C[C@H](C)[C@@H](CN(C)C(=O)Nc2ccc(C(F)(F)F)cc2)Oc2c(NC(=O)Nc3ccc(C(F)(F)F)cc3)cccc2C1=O | inconclusive: 28.2 µM [inhibitor, single point] | –
CCOC(=O)c1c(C)[nH]c(C(=O)Cn2nnc(-c3ccccc3)n2)c1C | inconclusive: 22.4 µM [inhibitor, partial curve, poor fit] | –
CNc1nc(NCc2ccccc2)c2ccccc2n1 | inconclusive: 12.6 µM [inhibitor, partial curve] | –
O=C(Nc1cccnc1)c1noc2c1CCCCC2 | inconclusive: 11.2 µM [inhibitor, partial curve] | –
CCCCCCN1C[C@@H](n2cc(C3CC3)nn2)[C@H](O)C[C@@H]1c1ccc(C)cc1 | inconclusive: 39.8 µM [inhibitor, single point] | –
COc1cc(/C=C/C(=O)c2ccc3c(c2)OCCO3)cc(Br)c1OCC(=O)N(C)C | active: 20 µM | –
Cc1ccc(NC(=O)CNc2cccc(S(=O)(=O)N3CCCC3)c2)cc1F | inactive | –
CCOC(=O)C1=CCN(S(=O)(=O)c2ccc(C)cc2)C1c1cccc(Cl)c1 (stereo unspecified) | inconclusive: 35.5 µM [inhibitor, partial curve] | –
O=C(CCC(=O)N1CCOc2ccc(Cl)cc21)NCCCN1CCC(Cc2ccccc2)CC1 | inconclusive: 26.7 µM [inhibitor, single point] | –
COc1ccc(-c2nc3ccccc3n2Cc2ccc(Cl)cc2)cc1 | inactive | –
Cn1cc(CN2CCc3ccccc3C2)c2ccccc21 | inconclusive: 28.2 µM [inhibitor, partial curve, poor fit] | –
COc1cc(/C=C2\CCC(C3CCCC3)C2=O)ccc1OC(C)C (stereo unspecified) | inactive | –

SMILES | Potency | activity change, negative = inhibition
COc1ccc(COc2cc(-c3cccc(OC)c3)nc3ccc(NC(C)=O)cc23)cc1 | inactive | –
CCOC(=O)C1=C(C)N=c2sc(=Cc3cc(Cl)c(OCC(=O)O)c(OC)c3)c(=O)n2C1c1ccccc1Cl (stereo unspecified) | inconclusive: 15.8 µM [inhibitor, partial curve, poor fit] | –
CCN1C(=O)[C@H]2[C@@H](c3ccc(-c4cccc(Cl)c4)c(OC)c3)N[C@@](C)(C(=O)OC)[C@H]2C1=O | inconclusive: 28.2 µM [inhibitor, partial curve, poor fit] | –
Cn1c(=O)oc2cc(S(=O)(=O)Nc3cccc4c3CCCC4)ccc21 | inconclusive: 35.5 µM [inhibitor, partial curve, poor fit] | –
C/C(=N\NC(=O)c1cc(-c2cccc(OC(C)C)c2)nc2ccccc12)c1cccnc1 | inactive | –
CN(CC(=O)NCc1ccc(F)cc1)CC(=O)Nc1ccc(Cl)c(C(F)(F)F)c1 | inconclusive: 35.5 µM [inhibitor, partial curve, poor fit] | –
CCC(C)Oc1cc(-c2ccnc(Nc3cccc(Cl)c3)n2)ccn1 (stereo unspecified) | inconclusive: 39.8 µM [inhibitor, single point] | –
CN(C)S(=O)(=O)c1ccc(-c2csc(N/N=C/c3ccco3)n2)cc1 | inconclusive: 7.94 µM [inhibitor, full curve, poor fit] | –
NNC(=S)NC1CCCCC1 | inactive | –
COc1cc(/C=C(\C#N)c2nc3ccccc3s2)ccc1OCC(=O)Nc1ccccc1 | inconclusive: 39.8 µM [inhibitor, single point] | –
O=C1NC(c2ccccc2)=C(c2ccc3ccccc3n2)C(c2ccccc2)N1 (stereo unspecified) | inactive | –
Cn1c(=N)n(CC(=O)c2ccc(F)cc2)c2ccccc21 | inconclusive: 16.8 µM [inhibitor, single point] | –
CCCCN(C)Cc1c(C(=O)N2CCc3ccccc3C2)nc2ccc(Cl)cn12 | inactive | –
O=c1[nH]c(=O)n([C@H]2C[C@@H](O)[C@@H](CO)O2)cc1C(F)(F)F | inconclusive: 5.44 µM [inhibitor, full curve] | –
O=C(CSc1cccc(C(F)(F)F)c1)Nc1cc(S(=O)(=O)N2CCCC2)ccc1Cl | inactive | –
O=S(c1cc(Cl)cc(Cl)c1O)c1cc(Cl)cc(Cl)c1O | inconclusive: 39.8 µM [inhibitor, single point] | –
Cc1ccc(NC(=O)C2(C)CCN2C(=O)C2(c3ccc(Cl)cc3)CC2)cc1 (stereo unspecified) | inactive | –
O=C(NC(=S)Nc1ccc(-c2nc3ncccc3o2)cc1)c1ccccc1F | inconclusive: 17.8 µM [inhibitor, partial curve] | –
CCOP(=O)(OCC)C(Cc1ccccc1)N=C(c1ccccc1)c1ccccc1 (stereo unspecified) | inconclusive: 17.8 µM [inhibitor, partial curve] | –
C=CC(=O)Nc1ccc2ncnc(Nc3ccc(OCc4cccc(F)c4)c(Cl)c3)c2c1 | inconclusive: 4.85 µM [inhibitor, full curve] | –
N#CC1=C(N)Oc2cc(O)c(C=Nc3ccccc3)cc2C1c1ccccc1 (stereo unspecified) | inconclusive: 25.1 µM [inhibitor, single point] | –
CC(C)CCOc1ccc(C2N=C(N)Nc3nc4ccccc4n32)cc1 (stereo unspecified) | inconclusive: 28.2 µM [inhibitor, single point] | –

SMILES | Potency | activity change, negative = inhibition
CCc1ccc(OCc2nc(-c3ccc(-n4cccc4)cc3)no2)cc1 | inactive | –
Oc1cc(NCCN2CCOCC2)cc2cccnc12 | active: 31.6 µM | –
CC(=O)Nc1sc2c(c1C(c1ccccc1Cl)N1CCN(CCO)CC1)CCCC2 (stereo unspecified) | inactive | –
COc1ccc(S(=O)(=O)c2cnc3cc(OC)c(OC)cc3c2N2CCCC(C)C2)cc1 (stereo unspecified) | inconclusive: 28.2 µM [inhibitor, single point] | –
Cc1cccc(-n2c(CCc3ccccc3)nnc2SCC(=O)c2ccccc2)c1 | inconclusive: 25.1 µM [inhibitor, single point] | –
CCOC(=O)c1ccc(NC(=O)c2ccc(NC(=O)c3ccccc3)cc2)cc1 | inconclusive: 7.08 µM [inhibitor, partial curve, poor fit] | –
CN(C)CCOc1nc(-c2ccccc2)nc2c1oc1ccccc12 | inconclusive: 31.6 µM [inhibitor, single point] | –
COc1cc(/C=C/C(=O)c2ccc3c(c2)OCCO3)cc(OC)c1OC | – | inconclusive: -58.4% [inhibitor]
CCOC(=O)c1c(C)[nH]c(C)c1S(=O)(=O)N1CCCC(C(=O)N2CCN(c3ccccc3F)CC2)C1 (stereo unspecified) | inactive | –
CN(Cc1ccc(Cl)cc1)C(C(=O)NC1CCCCC1)c1cc2ccccc2o1 (stereo unspecified) | inactive | –
CCc1nn(CC(=O)N2CCN(c3cccc(OC)c3)CC2)c(=O)c2cc3occc3n12 | inactive | –
O=c1cc(-c2ccc(Cl)cc2)nc(N2CCN(c3ccccc3)CC2)[nH]1 | inconclusive: 3.55 µM [inhibitor, partial curve, poor fit] | –
CC(=O)Nc1sc2c(c1C#N)CCC(C)C2 (stereo unspecified) | inactive | –
COc1cccc(C(NC(C)=O)c2ccc3cccnc3c2O)c1 (stereo unspecified) | inconclusive: 3.16 µM [inhibitor, partial curve, poor fit] | –
Cc1cccc(Nc2nnc(SCC(=O)NC(=O)Nc3ccc4c(c3)OCCO4)s2)c1 | inconclusive: 39.8 µM [inhibitor, partial curve, poor fit] | –
Cc1cc(C)nc(Sc2nc(Nc3ccccc3)nc(Sc3nc(C)cc(C)n3)n2)n1 | inactive | –
Cc1cc(/C=N/NC(=O)c2ccc(O)cc2)c(C)n1CC(C)C | inactive | –
CCc1ccccc1NC(=O)c1cnn(-c2ccccc2)c1C | inactive | –
CC1(C)CC(N2CCCC2)=CC(=[N+]2CCCCCC2)C1 | inconclusive: 8.91 µM [inhibitor, partial curve, poor fit] | –
C=CC(=O)N1CCC[C@@H](n2nc(-c3ccc(Oc4ccccc4)cc3)c3c(N)ncnc32)C1 | inconclusive: 10.9 µM [inhibitor, partial curve] | –
COc1cc(/C=C2\C(=O)ON=C2c2ccccc2)cc(Cl)c1O | inconclusive: 33.6 µM [inhibitor, single point] | –
CCc1nccn1S(=O)(=O)c1ccc(OC)c(OC)c1 | inactive | –
